Laboratory results reported in the RNAGym collection of RNA variant scans (doi:10.1093/nar/gkz1192).
Read counts are not given, so values of variants with three or more changes are uncertain.

B1: CPEB3 Ribozyme (parent)
chain: UAACAGGGGGCCACAGCAGAAGCGUUCACGUCGCAGCCCCUGUCAGAUUCUGGUGAAUCUGCGAAUUCUGCUGUAUAUCUC

Variants of: B1
Experiment: self-cleavage, relative activity (ratio to wild type); higher = more cleavage; in vitro, sequencing
How it was run: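 After error-prone PCR and barcoding, CPEB3 ribozyme mutant libraries were transcribed with T7 RNA polymerase at 37°C for 5 hours, then given 15 min with DNase I before an EDTA stop, and they cleaved during both steps. Reverse transcription with template switching preceded Illumina sequencing. Relative activity divides a variant's cleaved/total read fraction by the unmutated ribozyme's. At least 5 reads were required per variant, and three batches were averaged.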
For G7U A18G C29A C32U U43A, the self-cleavage was 0.33. G7U A18G G19U U54G G55U A56G U74C showed a self-cleavage of 0.15. G7U A18G U26A gave a self-cleavage of 0.07. For G7U A18G U26C A28G G33C, the self-cleavage was 0.47. Variant G7U A18G U49G U78C has a self-cleavage of 0.25. Variant G7U A18U A20G has a self-cleavage of 0.06. Work on G7U A18U A21G U41A U58C U66C U78A yielded a self-cleavage of 0.03. G7U A18U G19C U49C U54G A65G U72C gave a self-cleavage of 0.16. Work on G7U A20G A35U C39U U72C U78C yielded a self-cleavage of 0.05. Work on G7U A20U A28G C44U U66C U72C yielded a self-cleavage of 0.03. Work on G7U A20U C62U yielded a self-cleavage of 0.04. In the case of G7U A21G A35U U60C, the self-cleavage is reported as 0.12. With G7U A21G A45G U78C the self-cleavage was 0.14. G7U A21U U26G U41A U51C A57G showed a self-cleavage of 0.03. G7U A21U U41A U43C G53A showed a self-cleavage of 0.14. Variant G7U A28G A47G has a self-cleavage of 0.21. With G7U A28G G30A A35G U51A U66C U72C the self-cleavage was 0.05. Work on G7U A28G U66C A77G yielded a self-cleavage of 0.12. Variant G7U A28U U67A has a self-cleavage of 0.15. With G7U A35U U41C U49C C68U U69A the self-cleavage was 0.22. For G7U A45G A56G U60G, the self-cleavage was 0.15. Variant G7U A45G A64G has a self-cleavage of 0.05. With G7U A45G G61U G70A U74A the self-cleavage was 0.11. G7U A45U A65G gave a self-cleavage of 0.09. G7U A45U U60A U66C showed a self-cleavage of 0.05. Variant G7U A47G A57G has a self-cleavage of 0.08. For G7U A47G U48C U49C U60A U78C, the self-cleavage was 0.13. With G7U A47G U58C the self-cleavage was 0.26. G7U A57G C68U gave a self-cleavage of 0.05. With G7U A57G U67A the self-cleavage was 0.18. Work on G7U A57G U78C yielded a self-cleavage of 0.24. G7U C11G C39G U67A U69A U80C gave a self-cleavage of 0.04. In the case of G7U C11U U25C C71U U78C, the self-cleavage is reported as 0.04. G7U C12A A21G A77U showed a self-cleavage of 0.03. Variant G7U C12A A28G A56G A57G C62U A64G has a self-cleavage of 0.06. In the case of G7U C12U A13G A35U U78C, the self-cleavage is reported as 0.05. G7U C14U A57G gave a self-cleavage of 0.36. Work on G7U C14U U31A U74C U76A yielded a self-cleavage of 0.26. Variant G7U C14U U48A has a self-cleavage of 0.25. In the case of G7U C14U U54A A57G A65C U67C, the self-cleavage is reported as 0.05. With G7U C23U U54C the self-cleavage was 0.17. Work on G7U C23U U54C U60C G70A yielded a self-cleavage of 0.04. For G7U C29U U41C A45C, the self-cleavage was 0.04. For G7U C37A U69C, the self-cleavage was 0.04. Work on G7U C38A A75C yielded a self-cleavage of 0.05. G7U C38U U72C gave a self-cleavage of 0.18. With G7U C40G U51A A75U U78C the self-cleavage was 0.04. G7U C40U U69A showed a self-cleavage of 0.15. In the case of G7U C40U U69C, the self-cleavage is reported as 0.12. G7U G9C U25C U31A C32U U41C U78A gave a self-cleavage of 0.07. G7U G9U A21G U76A C81A showed a self-cleavage of 0.04. G7U G9U U67C showed a self-cleavage of 0.15. For G7U G10A A15U G19C, the self-cleavage was 0.04. G7U G10A A56G G63A U67G U78C showed a self-cleavage of 0.03. G7U G10C A21G U60C A64G U80C gave a self-cleavage of 0.07. G7U G10C G33U U43A U60C U80C gave a self-cleavage of 0.11. Work on G7U G10C U26C U76C yielded a self-cleavage of 0.15. Variant G7U G10U U31A U60A U66C U69A U76C has a self-cleavage of 0.03. For G7U G22C A28U U74A, the self-cleavage was 0.05. For G7U G22C U26C U41A G73C, the self-cleavage was 0.26. In the case of G7U G22C U41C U49A, the self-cleavage is reported as 0.16. Variant G7U G22U U72A has a self-cleavage of 0.37. Variant G7U G30U A57U U66G C71U has a self-cleavage of 0.02. For G7U G33A A35U A64G U67C, the self-cleavage was 0.13. G7U G33A U41A G52U U54A U72C U76A gave a self-cleavage of 0.15. G7U G36U U41A A57G G73C gave a self-cleavage of 0.05. G7U G36U U72C U78G U80A showed a self-cleavage of 0.09. G7U G52C U78C gave a self-cleavage of 0.24. G7U G53C U58A U78C gave a self-cleavage of 0.15. G7U G63U U67A U69A showed a self-cleavage of 0. G7U U25A C40G U41A U60C gave a self-cleavage of 0.3. G7U U25C C34U A64G showed a self-cleavage of 0.06. Variant G7U U25C G30A U31C A77U has a self-cleavage of 0.05. In the case of G7U U25C U26C U49C U72A, the self-cleavage is reported as 0.15. In the case of G7U U25C U31C, the self-cleavage is reported as 0.37. With G7U U25C U31C U41C U43A A75G the self-cleavage was 0.03. In the case of G7U U26A U41A U48C A57G A75U, the self-cleavage is reported as 0.1. For G7U U26C A57U A64G, the self-cleavage was 0.27. For G7U U26C A65G U72A, the self-cleavage was 0.12. G7U U26C G46U U51A A75G showed a self-cleavage of 0.09. Variant G7U U26C U31C U43C has a self-cleavage of 0.16. G7U U26C U78A gave a self-cleavage of 0.07. G7U U26G A56G U60G U80A showed a self-cleavage of 0.06. G7U U31A U51A A56G U60G showed a self-cleavage of 0.08. In the case of G7U U31C A56G U74C, the self-cleavage is reported as 0.1. For G7U U31G A57C, the self-cleavage was 0.05. Work on G7U U41A A57G yielded a self-cleavage of 0.06. G7U U41C A56G U60A U66C U67C U80A gave a self-cleavage of 0.04. Variant G7U U41C A64G has a self-cleavage of 0.09. Work on G7U U41C U60A yielded a self-cleavage of 0.19. Work on G7U U43A A45G U69G U78C yielded a self-cleavage of 0.14. With G7U U43C A57U G73C the self-cleavage was 0.05. Work on G7U U43C U48C yielded a self-cleavage of 0.15. G7U U48C U49C A57G A64G gave a self-cleavage of 0.06. G7U U49C G53A gave a self-cleavage of 0.33. For G7U U49C U69C, the self-cleavage was 0.11. Work on G7U U60A A77G yielded a self-cleavage of 0.1. Variant G7U U60C U72A U80A has a self-cleavage of 0.05. With G8A A13C U26A the self-cleavage was 0.37. G8A A13G A15U C40U A64U U69A showed a self-cleavage of 0.04. Work on G8A A13G A45G U69C yielded a self-cleavage of 0.08. In the case of G8A A13G U26A A65G, the self-cleavage is reported as 0.09. With G8A A13G U26A U41C U54C U72G U76C the self-cleavage was 0.05. In the case of G8A A13G U31C G36A, the self-cleavage is reported as 0.07. G8A A13G U41C U49A U54C U66A U72C showed a self-cleavage of 0.05. G8A A13U A20U A47G A56G showed a self-cleavage of 0.07. For G8A A13U A35G U41C U48C U76A, the self-cleavage was 0.21. Variant G8A A13U A56G has a self-cleavage of 0.2. In the case of G8A A13U C39A U66C A77G, the self-cleavage is reported as 0.05. Work on G8A A13U C40U A64G yielded a self-cleavage of 0.05. G8A A15C A47G U72C U78C gave a self-cleavage of 0.05. Work on G8A A15C U51C yielded a self-cleavage of 0.08. G8A A15C U58C gave a self-cleavage of 0.08. G8A A15G A21U U25A A35U A57G showed a self-cleavage of 0.15. G8A A15G A28G U80C gave a self-cleavage of 0.58. G8A A15G A45G A64U showed a self-cleavage of 0.17. For G8A A15G A45G G52U U60C, the self-cleavage was 0.1. In the case of G8A A15G G19C G61U, the self-cleavage is reported as 0.08. For G8A A15G U31C U76A, the self-cleavage was 0.09. For G8A A15G U41C, the self-cleavage was 0.37. G8A A15G U43C U74A gave a self-cleavage of 0.09. G8A A15G U51C A65G showed a self-cleavage of 0.1. For G8A A15U A18G, the self-cleavage was 0.03. G8A A15U A18U G53C gave a self-cleavage of 0.05. With G8A A15U A21G U25A U31C C40A U67C the self-cleavage was 0.04. Work on G8A A15U A21G U31C U49C yielded a self-cleavage of 0.19. G8A A15U A28G G33U showed a self-cleavage of 0.07. In the case of G8A A15U A35U U54C A64G, the self-cleavage is reported as 0. G8A A15U C59A G73C U80A showed a self-cleavage of 0.04. G8A A15U G33A gave a self-cleavage of 0.1. Work on G8A A15U U43C U67C A77G yielded a self-cleavage of 0.04. G8A A15U U80C showed a self-cleavage of 0.47. With G8A A18C U43G A45G U67C U72C the self-cleavage was 0.13. Variant G8A A18C U69C U78A has a self-cleavage of 0.03. Work on G8A A18G A20G yielded a self-cleavage of 0.49. Variant G8A A18G A20U C39A U51G A65G U72A has a self-cleavage of 0.05. G8A A18G A20U U60A gave a self-cleavage of 0.05. For G8A A18G A21G A35G G73U, the self-cleavage was 0.05. G8A A18G A47G showed a self-cleavage of 0.06. In the case of G8A A18G A56G, the self-cleavage is reported as 0.28. G8A A18G C27A A45G U51C U72G gave a self-cleavage of 0.05. With G8A A18G C34U A57G C81U the self-cleavage was 0.04. For G8A A18G C44A U54C U67A U78A, the self-cleavage was 0.06. With G8A A18G G33U U43A the self-cleavage was 0.05. For G8A A18G U26A U41A U48C U78C U80A, the self-cleavage was 0.29. For G8A A18G U69A U78A, the self-cleavage was 0.09. G8A A18G U74G gave a self-cleavage of 0.08. G8A A18U A21G U60A U69A showed a self-cleavage of 0.04. Variant G8A A18U A56G has a self-cleavage of 0.23. Variant G8A A18U A64U has a self-cleavage of 0.26. For G8A A18U G63A U66C U74C, the self-cleavage was 0.28. Work on G8A A20G A28U U31C C50U A57G yielded a self-cleavage of 0.04. In the case of G8A A20G A56G U69A C71U, the self-cleavage is reported as 0.05. With G8A A20G C37U U41A U49A U54C the self-cleavage was 0.06. In the case of G8A A20G C39U U51A A65G, the self-cleavage is reported as 0.07. G8A A20G U25A A47G U49A U78C gave a self-cleavage of 0.04. In the case of G8A A20G U25A U60A U69A, the self-cleavage is reported as 0.05. G8A A20G U26A gave a self-cleavage of 0.07. G8A A20G U26A U43C G63A A64G A77U showed a self-cleavage of 0.03. Variant G8A A20G U48C A57U has a self-cleavage of 0.07. Work on G8A A20G U49A U67C U80C yielded a self-cleavage of 0.07. G8A A20G U49C showed a self-cleavage of 0.3. Work on G8A A20U A35U U60C A64G U69C yielded a self-cleavage of 0.05. G8A A20U C29A U58C G63A U80C C81U showed a self-cleavage of 0.04. For G8A A20U U49C U51C A65G, the self-cleavage was 0.04. For G8A A21G A45U A77G, the self-cleavage was 0.15. G8A A21G G52U U54A showed a self-cleavage of 0.05.
